Measurements from patent publication USRE49949E1, “Reducing risk of contracting clostridium-difficile associated disease” (The Board of Regents of the Nevada System of Higher …, priority 2012, dated 2024).

Tests used:
C. difficile spores [1] = assay: Recovery of C. difficile cells and spores from intestines and feces of CamSA-treated mice; assay type: in vivo
C. difficile spores [2] = assay: Outgrowth of C. difficile spores in medium containing CamSA; assay type: cell-based; conditions: medium containing 200 μM CamSA

C[C@H](CCC(=O)Nc1cccc(S(=O)(=O)O)c1)[C@H]1CC[C@H]2[C@@H]3[C@H](O)C[C@@H]4C[C@H](O)CC[C@]4(C)[C@H]3C[C@H](O)[C@]12C [CamSA, 3-[(3α,7α,12α-trihydroxy-24-oxo-5β-cholan-24-yl)amino]benzenesulfonic acid]
C. difficile vegetative cells compared to spore counts in feces (C. difficile spores [1]; 50 mg/kg CamSA): < 10% | spores recovered from cecum and colon (C. difficile spores [1]; 50 mg/kg CamSA, by 96 hours): less than 2×10^5 CFUs | spores recovered from cecum and colon before the 96 hour decrease (C. difficile spores [1]; 50 mg/kg CamSA, up to 72 hours after spore challenge): greater than 12×10^5 CFUs | excretion of ingested spores continued until, post-challenge (C. difficile spores [1]; CamSA-treated animals, feces): at least 96 hours | start of excretion of ingested spores post-challenge (C. difficile spores [1]; CamSA-treated animals, feces): 2 h | bacterial growth from spores (C. difficile spores [2]): reduced but not eliminated
